Measured values reported in patent US10640563B2, “Anti-B7-H3 antibodies and antibody drug conjugates” (AbbVie Inc., priority 2016, dated 2020).

Tests used:
DAR of ADC by LC-MS = conditions: ADC as conjugated (Method A, E or G)
Protocol: The DAR and percentage aggregation of ADCs synthesized were determined by LC-MS and size exclusion chromatography (SEC), respectively.
LC-MS analysis was performed using an Agilent 1100 HPLC system interfaced to an Agilent LC/MSD TOF 6220 ESI mass spectrometer. The ADC was reduced with 5 mM (final concentration) Bond-Breaker® TCEP solution (Thermo Scientific, Rockford, Ill.), loaded onto a Protein Microtrap (Michrom Bioresorces, Auburn, Calif.) desalting cartridge, and eluted with a gradient of 10% B to 75% B in 0.2 minutes at ambient temperature. Mobile phase A was H2O with 0.1% formic acid (FA), mobile phase B was acetonitrile with 0.1% FA, and the flow rate was 0.2 mL/min. Electrospray-ionization time-of-flight mass spectra of the co-eluting light and heavy chains were acquired using Agilent MassHunter™ acquisition software. The extracted intensity vs. m/z spectrum was deconvoluted using the Maximum Entropy feature of MassHunter software to determine the mass of each reduced antibody fragment. DAR was calculated from the deconvoluted spectrum by summing intensities of the naked and modified peaks for the light chain and heavy chain, normalized by multiplying intensity by the number of drugs attached. The summed, normalized intensities were divided by the sum of the intensities, and the summing results for two light chains and two heavy chains produced a final average DAR value for the full ADC.

[1] = Aggregation of conjugates by SEC; type: physicochemical; conditions: ADC as conjugated (Method A, E or G)

Row | Molecule | DAR by MS (DAR of ADC by LC-MS) | % agg by SEC [1] [%]
1 | huAb13v1-WD (conjugate) heavy: EVQLQESGPGLVKPSETLSLTCAVTGYSITSGYSWHWIRQFPGNGLEWMGYIHSSGSTNYNPSLKSRISISRDTSKNQFFLKLSSVTAADTAVYYCAGYDDYFEYWGQGTTVTVSSASTKGPSVFPLAPSSKSTSGGTAALGCLVKDYFPEPVTVSWNSGALTSGVHTFPAVLQSSGLYSLSSVVTVPSSSLGTQTYICNVNHKPSNTKVDKKV[letters of human IgG1 Fc with changes omitted] light: DIQMTQSPSSLSASVGDRVTITCKASQNVGFNVAWYQQKPGKSPKALIYSASYRYSGVPSRFSGSGSGTDFTLTISSLQPEDFAEYFCQQYNWYPFTFGQGTKLEIKRTVAAPSVFIFPPSDEQLKSGTASVVCLLNNFYPREAKVQWKVDNALQSGNSQESVTEQDSKDSTYSLSSTLTLSKADYEKHKVYACEVTHQGLSSPVTKSFNRGEC | 3 | 5.4
2 | huAb13v1-LB (conjugate) heavy: EVQLQESGPGLVKPSETLSLTCAVTGYSITSGYSWHWIRQFPGNGLEWMGYIHSSGSTNYNPSLKSRISISRDTSKNQFFLKLSSVTAADTAVYYCAGYDDYFEYWGQGTTVTVSSASTKGPSVFPLAPSSKSTSGGTAALGCLVKDYFPEPVTVSWNSGALTSGVHTFPAVLQSSGLYSLSSVVTVPSSSLGTQTYICNVNHKPSNTKVDKKV[letters of human IgG1 Fc with changes omitted] light: DIQMTQSPSSLSASVGDRVTITCKASQNVGFNVAWYQQKPGKSPKALIYSASYRYSGVPSRFSGSGSGTDFTLTISSLQPEDFAEYFCQQYNWYPFTFGQGTKLEIKRTVAAPSVFIFPPSDEQLKSGTASVVCLLNNFYPREAKVQWKVDNALQSGNSQESVTEQDSKDSTYSLSSTLTLSKADYEKHKVYACEVTHQGLSSPVTKSFNRGEC | 2.2 | 21.9
3 | huAb13v1-ZT (conjugate) heavy: EVQLQESGPGLVKPSETLSLTCAVTGYSITSGYSWHWIRQFPGNGLEWMGYIHSSGSTNYNPSLKSRISISRDTSKNQFFLKLSSVTAADTAVYYCAGYDDYFEYWGQGTTVTVSSASTKGPSVFPLAPSSKSTSGGTAALGCLVKDYFPEPVTVSWNSGALTSGVHTFPAVLQSSGLYSLSSVVTVPSSSLGTQTYICNVNHKPSNTKVDKKV[letters of human IgG1 Fc with changes omitted] light: DIQMTQSPSSLSASVGDRVTITCKASQNVGFNVAWYQQKPGKSPKALIYSASYRYSGVPSRFSGSGSGTDFTLTISSLQPEDFAEYFCQQYNWYPFTFGQGTKLEIKRTVAAPSVFIFPPSDEQLKSGTASVVCLLNNFYPREAKVQWKVDNALQSGNSQESVTEQDSKDSTYSLSSTLTLSKADYEKHKVYACEVTHQGLSSPVTKSFNRGEC | 2.4 | 
4 | huAb13v1-ZZ (conjugate) heavy: EVQLQESGPGLVKPSETLSLTCAVTGYSITSGYSWHWIRQFPGNGLEWMGYIHSSGSTNYNPSLKSRISISRDTSKNQFFLKLSSVTAADTAVYYCAGYDDYFEYWGQGTTVTVSSASTKGPSVFPLAPSSKSTSGGTAALGCLVKDYFPEPVTVSWNSGALTSGVHTFPAVLQSSGLYSLSSVVTVPSSSLGTQTYICNVNHKPSNTKVDKKV[letters of human IgG1 Fc with changes omitted] light: DIQMTQSPSSLSASVGDRVTITCKASQNVGFNVAWYQQKPGKSPKALIYSASYRYSGVPSRFSGSGSGTDFTLTISSLQPEDFAEYFCQQYNWYPFTFGQGTKLEIKRTVAAPSVFIFPPSDEQLKSGTASVVCLLNNFYPREAKVQWKVDNALQSGNSQESVTEQDSKDSTYSLSSTLTLSKADYEKHKVYACEVTHQGLSSPVTKSFNRGEC | 1.4 | 20.3
5 | huAb13v1-SE (conjugate) heavy: EVQLQESGPGLVKPSETLSLTCAVTGYSITSGYSWHWIRQFPGNGLEWMGYIHSSGSTNYNPSLKSRISISRDTSKNQFFLKLSSVTAADTAVYYCAGYDDYFEYWGQGTTVTVSSASTKGPSVFPLAPSSKSTSGGTAALGCLVKDYFPEPVTVSWNSGALTSGVHTFPAVLQSSGLYSLSSVVTVPSSSLGTQTYICNVNHKPSNTKVDKKV[letters of human IgG1 Fc with changes omitted] light: DIQMTQSPSSLSASVGDRVTITCKASQNVGFNVAWYQQKPGKSPKALIYSASYRYSGVPSRFSGSGSGTDFTLTISSLQPEDFAEYFCQQYNWYPFTFGQGTKLEIKRTVAAPSVFIFPPSDEQLKSGTASVVCLLNNFYPREAKVQWKVDNALQSGNSQESVTEQDSKDSTYSLSSTLTLSKADYEKHKVYACEVTHQGLSSPVTKSFNRGEC | 3.7 | 4
6 | huAb13v1-SR (conjugate) heavy: EVQLQESGPGLVKPSETLSLTCAVTGYSITSGYSWHWIRQFPGNGLEWMGYIHSSGSTNYNPSLKSRISISRDTSKNQFFLKLSSVTAADTAVYYCAGYDDYFEYWGQGTTVTVSSASTKGPSVFPLAPSSKSTSGGTAALGCLVKDYFPEPVTVSWNSGALTSGVHTFPAVLQSSGLYSLSSVVTVPSSSLGTQTYICNVNHKPSNTKVDKKV[letters of human IgG1 Fc with changes omitted] light: DIQMTQSPSSLSASVGDRVTITCKASQNVGFNVAWYQQKPGKSPKALIYSASYRYSGVPSRFSGSGSGTDFTLTISSLQPEDFAEYFCQQYNWYPFTFGQGTKLEIKRTVAAPSVFIFPPSDEQLKSGTASVVCLLNNFYPREAKVQWKVDNALQSGNSQESVTEQDSKDSTYSLSSTLTLSKADYEKHKVYACEVTHQGLSSPVTKSFNRGEC | 2.6 | 49.5
7 | huAb13v1-YG (conjugate) heavy: EVQLQESGPGLVKPSETLSLTCAVTGYSITSGYSWHWIRQFPGNGLEWMGYIHSSGSTNYNPSLKSRISISRDTSKNQFFLKLSSVTAADTAVYYCAGYDDYFEYWGQGTTVTVSSASTKGPSVFPLAPSSKSTSGGTAALGCLVKDYFPEPVTVSWNSGALTSGVHTFPAVLQSSGLYSLSSVVTVPSSSLGTQTYICNVNHKPSNTKVDKKV[letters of human IgG1 Fc with changes omitted] light: DIQMTQSPSSLSASVGDRVTITCKASQNVGFNVAWYQQKPGKSPKALIYSASYRYSGVPSRFSGSGSGTDFTLTISSLQPEDFAEYFCQQYNWYPFTFGQGTKLEIKRTVAAPSVFIFPPSDEQLKSGTASVVCLLNNFYPREAKVQWKVDNALQSGNSQESVTEQDSKDSTYSLSSTLTLSKADYEKHKVYACEVTHQGLSSPVTKSFNRGEC | 3.3 | 2.1
8 | huAb3v2.6-LB (conjugate) heavy: EVQLVQSGAEVKKPGSSVKVSCKASGYTFSSYWMHWVRQAPGQGLEWIGLIHPESGSTNYNEMFKNRATLTVDRSTSTAYMELSSLRSEDTAVYYCAGGGRLYFDYWGQGTTVTVSSASTKGPSVFPLAPSSKSTSGGTAALGCLVKDYFPEPVTVSWNSGALTSGVHTFPAVLQSSGLYSLSSVVTVPSSSLGTQTYICNVNHKPSNTKVDKKV[letters of human IgG1 Fc with changes omitted] light: DIVMTQSPLSLPVTPGEPASISCRSSQSLVHSNQDTYLRWYLQKPGQSPQLLIYKVSNRFSGVPDRFSGSGSGTDFTLKISRVEAEDVGVYYCSQSTHVPYTFGGGTKVEIKRTVAAPSVFIFPPSDEQLKSGTASVVCLLNNFYPREAKVQWKVDNALQSGNSQESVTEQDSKDSTYSLSSTLTLSKADYEKHKVYACEVTHQGLSSPVTKSFNRGEC |  | 27.2
